# Results from a collection of fitness landscapes (doi:10.1016/j.celrep.2020.107928).
# In all, about 81,000 sequences were measured (“one-hybrid fitness for binding NBS DNA”: median about -0.1, highest 2% from about 0.36 on). The list shows a part of the results.
# B1: Caulobacter ParB omega fusion; a variant is named by its letters at X, in order, B8GW30 (parent)
# chain: MESVVVGEPGMSEGRRGLGRGLSALLGEVDAAPAQAPGEQLGGSREAPIEILQRNPDQPRRTFREEDLEDLSNSIREKGVLQPILVRPSPDTAGEYQIVAGERAWRAAQRAGLKTVPIMVRELDDLAVLEIGIIENVQRADLNVLEEALSYKVLMEKFERTQENIAQTIGKSXSHVANXMRLLXLPDEVQSYLVSGELTAXHARAIAAAADPVALAKQIIEGGLSVRETEALARKAPNLSAGKSKGGRPPRVKDTDTQALESDLSSVLGLDVSIDHRGSTGTLTITYATLEQLDDLCNRLTRGI
# Variants of: B1
# Assay: one-hybrid fitness for binding NBS DNA (the Noc-binding site; scaled: cognate 1, non-cognate 0); higher = stronger binding
# Conditions: with NBS DNA site
# In short: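 Fitness is the rescaled log change in variant-to-wild-type read ratio, measured by Illumina sequencing of plasmids before and after bacterial one-hybrid selection. The scale puts cognate at 1 and non-cognate at 0. Selection of Caulobacter ParB libraries, four specificity codons randomised, took place in E. coli USO with a HIS3 reporter, site 19 bp from the promoter, over 48 hours at 37°C on M9-minus-histidine with 0.1 mM IPTG and 5 mM 3-AT.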
row,Variant,one-hybrid fitness for binding NBS DNA
1,AWPR,≤ 0.2
2,TVIY,≤ 0.2
3,CVVT,≤ 0.2
4,RLKK,≤ 0.2
5,NSYL,≤ 0.2
6,RTNR,0.744
7,NCHS,≤ 0.2
8,DLPT,≤ 0.2
9,YSYP,≤ 0.2
10,FYTN,≤ 0.2
11,SLSY,≤ 0.2
12,AWLT,≤ 0.2
13,KDKK,≤ 0.2
14,WTRI,≤ 0.2
15,SGTE,≤ 0.2
16,YRNR,≤ 0.2
17,DGCS,≤ 0.2
18,PCLC,≤ 0.2
19,STFK,≤ 0.2
20,GDTA,≤ 0.2
21,SNYV,≤ 0.2
22,LRVE,≤ 0.2
23,TAHV,≤ 0.2
24,EQVG,≤ 0.2
25,RKFN,≤ 0.2
26,HKNS,≤ 0.2

row,Variant,one-hybrid fitness for binding NBS DNA
1,CPSY,≤ 0.2
2,RNEM,≤ 0.2
3,AQCN,≤ 0.2
4,QVPP,≤ 0.2
5,DRIA,≤ 0.2
6,DWTG,≤ 0.2
7,SCMT,≤ 0.2
8,PHSY,≤ 0.2
9,QPDF,≤ 0.2
10,FSKR,0.218
11,QVHW,≤ 0.2
12,VGTA,≤ 0.2
13,QQHL,≤ 0.2
14,ECSG,≤ 0.2
15,LVNW,≤ 0.2
16,TQFT,≤ 0.2
17,NVSM,≤ 0.2
18,DRVG,≤ 0.2
19,FAVR,≤ 0.2
20,CEYG,≤ 0.2
21,QTRR,1.15
22,PYSS,≤ 0.2
23,LSDS,≤ 0.2
24,THRL,≤ 0.2
25,TKEA,≤ 0.2
26,AAII,≤ 0.2

row,Variant,one-hybrid fitness for binding NBS DNA
1,NHCL,≤ 0.2
2,QSLF,≤ 0.2
3,VQSH,≤ 0.2
4,IPST,≤ 0.2
5,DAEG,≤ 0.2
6,NYPV,≤ 0.2
7,LDLR,≤ 0.2
8,CLPV,≤ 0.2
9,RTNG,≤ 0.2
10,QAPT,0.23
11,PPRL,≤ 0.2
12,YASC,≤ 0.2
13,AVCS,≤ 0.2
14,NQPQ,≤ 0.2
15,KNTS,≤ 0.2
16,TITW,≤ 0.2
17,HGTV,≤ 0.2
18,RWFL,≤ 0.2
19,HSDT,≤ 0.2
20,QWDK,≤ 0.2
21,THPE,≤ 0.2
22,PFFR,≤ 0.2
23,TGIA,≤ 0.2
24,HEKC,≤ 0.2
25,HQGC,≤ 0.2
26,RVTF,≤ 0.2

row,Variant,one-hybrid fitness for binding NBS DNA
1,PSQC,≤ 0.2
2,QMFE,≤ 0.2
3,FLPY,≤ 0.2
4,HFRW,≤ 0.2
5,YGTG,≤ 0.2
6,VSKA,≤ 0.2
7,QNEY,≤ 0.2
8,HCID,≤ 0.2
9,YNGR,≤ 0.2
10,ICGG,≤ 0.2
11,QDSQ,≤ 0.2
12,SEPV,≤ 0.2
13,SEQR,≤ 0.2
14,PQNC,≤ 0.2
15,FVKT,≤ 0.2
16,VACC,≤ 0.2
17,LICT,≤ 0.2
18,WTVG,≤ 0.2
19,QWWL,≤ 0.2
20,QMQS,0.394
21,VHRG,≤ 0.2
22,HSVS,≤ 0.2
23,FAKG,≤ 0.2
24,RKWG,≤ 0.2
25,RCLQ,≤ 0.2
26,YNIR,≤ 0.2

row,Variant,one-hybrid fitness for binding NBS DNA
1,KEKV,≤ 0.2
2,MDIE,≤ 0.2
3,QYDT,0.272
4,TRCF,≤ 0.2
5,VFVG,≤ 0.2
6,PTVL,≤ 0.2
7,RPNM,≤ 0.2
8,LHMY,≤ 0.2
9,GQRY,≤ 0.2
10,RVGY,≤ 0.2
11,EKIT,≤ 0.2
12,SPGM,≤ 0.2
13,QTSS,0.522
14,SVRG,≤ 0.2
15,AHAG,≤ 0.2
16,VFFS,≤ 0.2
17,CFTG,≤ 0.2
18,CTLR,≤ 0.2
19,CQIC,≤ 0.2
20,CENL,≤ 0.2
21,SCYT,≤ 0.2
22,CKHS,≤ 0.2
23,SIFM,≤ 0.2
24,GPMG,≤ 0.2
25,GSPW,≤ 0.2
26,ADSI,≤ 0.2

row,Variant,one-hybrid fitness for binding NBS DNA
1,QAGE,≤ 0.2
2,FMNF,≤ 0.2
3,ALPC,≤ 0.2
4,AHIL,≤ 0.2
5,RQEH,≤ 0.2
6,TKQR,≤ 0.2
7,LTLS,≤ 0.2
8,AGPV,≤ 0.2
9,ESHV,≤ 0.2
10,HAPH,≤ 0.2
11,HFGL,≤ 0.2
12,AGWP,≤ 0.2
13,QLEI,≤ 0.2
14,AAAN,≤ 0.2
15,MGFR,≤ 0.2
16,GRYR,≤ 0.2
17,RRIC,0.399
18,EDHT,≤ 0.2
19,IVVL,≤ 0.2
20,DTHY,≤ 0.2
21,PRIQ,≤ 0.2
22,QKTI,≤ 0.2
23,AYPI,≤ 0.2
